The full ranking holds about 16,000 sequences; the median of “Z-score” is about -0.37, and the highest 2% start at about 3.2. This is one part of the list.
Tested on: RBM10 RRM1-ZnF (GST-tagged construct)
Assay: RNAcompete 7-mer binding Z-score; higher = stronger binding preference
Procedure: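 RNAcompete: 20 pmol GST-tagged RBM10 RNA-binding constructs were incubated with a designed RNA pool of about 241,000 sequences up to 41 nt (1.5 nmol) on glutathione beads for 30 min at 4 °C and washed. Bound RNAs were identified by microarray hybridisation. Each RNA 7-mer is scored by a one-sided Z-score of its enrichment, computed over probes that contain the 7-mer within longer pool sequences.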

| Sequence | RNAcompete 7-mer binding Z-score |
| --- | --- |
| AGAUGGC | 0.374 |
| CUUGGAC | -0.444 |
| AUGCGUA | -0.23 |
| GAGGACA | 1.5 |
| GCGCAAG | 0.0593 |
| UAUCCAC | -0.503 |
| GUUUAAA | -0.389 |
| UUUGGUC | -0.353 |
| GGCAAAU | 0.465 |
| UUGUUUC | -0.642 |
| CAGUGAU | -0.246 |
| CUGAUGU | -0.152 |
| GUGGACA | 1.74 |
| CUGGCGG | 0.508 |
| AGCUUGC | -0.681 |
| UACCAGU | -0.568 |
| AGAUAGG | 2.44 |
| UCAGGAC | -0.129 |
| UACCAAC | -0.668 |
| UGCGGGA | 1.87 |
| AGGUGAU | 1.8 |
| GAAAGUA | 0.709 |
| GCGGCCC | -0.256 |
| UGAAGUC | -0.301 |

| Sequence | RNAcompete 7-mer binding Z-score |
| --- | --- |
| GAGUAUU | -0.178 |
| GCGCUGU | -0.0772 |
| UUUGUUU | -0.282 |
| CAGUACA | -0.249 |
| CUCCGGG | 0.42 |
| GUGGAGU | 2.67 |
| GAACUCA | -0.548 |
| AUAUACA | -0.6 |
| CCUAUGA | -0.772 |
| UCCUCGC | -0.779 |
| GAAAAAA | 0.163 |
| UCACCUC | -0.75 |
| UGGUGUU | 1.22 |
| GCAAUAA | -0.249 |
| GCUCGUA | -0.431 |
| CCUAACU | -0.753 |
| ACACAAA | -0.493 |
| CUUUGUU | -0.85 |
| AUGACUU | -0.72 |
| GGUGGCG | 2.74 |
| AAGCGCA | -0.152 |
| UGACUAC | -0.373 |
| CGCCGUU | -0.704 |
| AAGACAC | -0.389 |

| Sequence | RNAcompete 7-mer binding Z-score |
| --- | --- |
| UGGUCUG | 0.475 |
| CAUAACU | -0.548 |
| CUCGUCU | -0.798 |
| UGUGUAA | 0.303 |
| UUGAAAU | -0.412 |
| CGUAAUA | -0.561 |
| AGUUUCA | -0.681 |
| UGAAUGC | -0.318 |
| UAUCACG | -0.324 |
| CUUUGGA | -0.383 |
| GGAAACA | 1.51 |
| CUAUCCU | -0.841 |
| GGAGCAA | 1.71 |
| GUUAUAU | -0.236 |
| CCUGCCU | -0.506 |
| GUGAAGA | 1.09 |
| UCAUCCA | -0.795 |
| CAAUCAG | -0.175 |
| CGGAUGA | 1.15 |
| ACCUUAU | -0.945 |
| CCGGCUU | -0.876 |
| CGAUCAC | -0.587 |
| UGAAUCU | -0.457 |
| UAAUUGU | -0.571 |

| Sequence | RNAcompete 7-mer binding Z-score |
| --- | --- |
| ACGAUUG | 0.0495 |
| UGUGCUU | -0.678 |
| CGUAGAA | 0.189 |
| CCGGCUG | -0.21 |
| GCAACUG | -0.171 |
| GCGUAAC | -0.0674 |
| ACGUAGC | -0.269 |
| AUUACAA | -0.331 |
| GAUAUCC | -0.636 |
| AUUCCUG | -0.818 |
| UGUAGCC | -0.448 |
| CAUGCUC | -0.655 |
| UGUCUCC | -0.548 |
| GAAAAGC | 0.309 |
| CCAAAAC | -0.863 |
| GUGCUCG | 0.00404 |
| ACUCAAC | -0.642 |
| UUGAAUC | -0.483 |
| UAGGUUU | 0.829 |
| AAUACAG | 0.0625 |
| GUUCUGU | -0.431 |
| CCACACA | -0.685 |
| AUACCUA | -0.808 |
| CGCCGCA | -0.626 |

| Sequence | RNAcompete 7-mer binding Z-score |
| --- | --- |
| AUACGCA | -0.399 |
| AUUCCGA | -0.815 |
| CAGUUAA | -0.389 |
| GCUGGCU | -0.0187 |
| UUUGGCC | -0.584 |
| UACCCAC | -0.629 |
| AACAGCA | -0.357 |
| GAGGAUG | 3.1 |
| CAUGCAA | -0.451 |
| CGACGUA | -0.129 |
| UGGCGUU | 0.102 |
| CGUUAUA | -0.529 |
| UGACAGA | 0.186 |
| GAGGGCG | 2.27 |
| CCAUUCC | -0.893 |
| AUAGCAG | 0.358 |
| AGAAGAG | 1.64 |
| CUUACCU | -0.815 |
| UGAUGCG | 0.55 |
| GUGAUUC | -0.334 |
| ACGUCAG | -0.269 |
| CCCUGGA | -0.123 |
| GGCACGA | 0.628 |
| GUGUUAA | -0.0447 |

| Sequence | RNAcompete 7-mer binding Z-score |
| --- | --- |
| UCAUCCC | -0.795 |
| AGUUCCC | -0.594 |
| GAUGCGA | 0.371 |
| UGCGUGA | 0.134 |
| AGUUAAG | 0.153 |
| GGCCCGU | -0.532 |
| UCUGGGC | 0.0268 |
| CAGACUC | -0.62 |
| UCCAUGG | -0.288 |
| CUUAUGC | -0.831 |
| CGCUGUA | -0.399 |
| ACAAAAA | -0.461 |
| UCCAUCA | -0.753 |
| CUACCUG | -0.945 |
| GUAUUAC | -0.233 |
| UAGCUUG | -0.392 |
| GACGUCA | -0.402 |
| AUACGAA | -0.194 |
| GAAUCCC | -0.578 |
| ACCUCGG | -0.399 |
| ACAGGAC | 0.82 |
| AAGCCCC | -0.659 |
| CAGCUUC | -0.73 |
| CCCUUGC | -0.694 |

| Sequence | RNAcompete 7-mer binding Z-score |
| --- | --- |
| CCAUGGG | 0.67 |
| UGCAGGG | 2.57 |
| GGCCAUA | -0.49 |
| AGGUCGU | 0.179 |
| CGCGCCC | -0.269 |
| GAGGUGG | 3.35 |
| AAGCGAC | 0.0268 |
| UCGUCUA | -0.626 |
| UUAAUCC | -0.811 |
| GAGUCGU | 0.199 |
| UGAGCAA | 0.0918 |
| UCGCGAC | -0.451 |
| UUGGACU | -0.0967 |
| GUACAAG | 0.446 |
| AAAUUAA | -0.5 |
| ACAGCCU | -0.883 |
| UCUAAAU | -0.633 |
| UAGUUAU | -0.467 |
| CUGUACC | -0.837 |
| CCGACCU | -0.867 |
| ACUUUUA | -0.714 |
| UAGAGGG | 2.77 |
| CAGCAAG | -0.0804 |
| UACUAUU | -0.694 |

| Sequence | RNAcompete 7-mer binding Z-score |
| --- | --- |
| CACGAUU | -0.545 |
| AUCGAAU | -0.604 |
| UGCAUAA | -0.457 |
| CAGUGCG | 0.0203 |
| UCUCAAU | -0.717 |
| CGGAGGU | 2.41 |
| AUACGUG | 0.202 |
| GGGGGAU | 3.32 |
| CCCGGAC | -0.22 |
| AAGCUGG | 0.904 |
| UUACUAG | -0.331 |
| CCACGCA | -0.558 |
| AGGUCAU | -0.214 |
| GAACUGU | -0.24 |
| AGGCGUU | 0.00729 |
| GAAGUAA | 0.446 |
| UGGAUGA | 2.17 |
| GAGAUAG | 1.19 |
| GCAUAAU | -0.415 |
| AAGCGUG | 0.664 |
| ACUGUUA | -0.565 |
| GGCCGCU | -0.405 |
| CCAGUAG | -0.168 |
| CCCUCGC | -0.438 |

| Sequence | RNAcompete 7-mer binding Z-score |
| --- | --- |
| GACCAGU | -0.474 |
| UCAAGUU | -0.565 |
| UUGUCUU | -0.711 |
| AUGUUCC | -0.714 |
| UUGUCGG | 0.0755 |
| CUGCCCG | -0.227 |
| UAAUAUA | -0.448 |
| UGUGGGG | 3.96 |
| CAAGAGU | -0.0155 |
| GCUGACA | -0.0512 |
| UUGUACU | -0.733 |
| GUACCAU | -0.568 |
| UGGGGGG | 4.02 |
| UUGGUAC | 0.573 |
| GGGUGCU | 2.53 |
| UUUCGCU | -0.818 |
| UUGCGGC | 0.0528 |
| AAUUAGU | -0.301 |
| GGAUGGA | 4.23 |
| CAUGCGA | -0.171 |
| CCUCCCG | -0.422 |
| UUGGCAG | 0.595 |
| GGAUUGU | 1.22 |
| CCGUCCC | -0.503 |

| Sequence | RNAcompete 7-mer binding Z-score |
| --- | --- |
| UAAUAAU | -0.487 |
| CCAAUGG | 0.212 |
| ACACCGU | -0.571 |
| UCGGAUA | 0.118 |
| GCUACCA | -0.474 |
| GUGUCGU | 0.15 |
| UGGGACC | 1.36 |
| CUUGUUU | -0.766 |
| AAUGUCC | -0.743 |
| AAUUAGA | -0.106 |
| CACGAAU | -0.249 |
| AAUUCUG | -0.756 |
| GGUGUAA | 1.75 |
| GCCUUUC | -0.984 |
| UAACGCU | -0.681 |
| UUUCGUC | -0.811 |
| UUGGGAU | 2 |
| CACCAGU | -0.509 |
